According to US20230322928A1, “TREATMENT METHODS USING CTLA-4 AND PD-1 BISPECIFIC ANTIBODIES” (MedImmune, LLC, priority 2022, published 2023):
Read-outs that look alike come from different tables or passages of the source.

Tests used:
nonsquamous NSCLC = experiment: Phase 1 study: antitumor activity in non-squamous NSCLC expansion cohorts (with carboplatin/pemetrexed); type: in vivo, human; settings: First line Non-squamous NSCLC
Source text: (§1) The primary endpoint was OR, which is commonly used in oncology studies evaluating subjects with advanced solid tumors, including RCC or NSCLC. The primary objective for the squamous NSCLC expansion cohort was to evaluate the safety and tolerability of MEDI5752 in subjects with advanced solid tumors when combined with chemotherapy.
PD-L1 status will be assessed in subjects who have provided archival or fresh tumor biopsies. For the NSCLC expansion cohorts, PD-L1 positive is defined as baseline PD-L1 expression with tumor cell ≥1% and PD-L1 negative is defined as baseline PD-L1 expression with tumor cell <1%.

[1] = Phase 1 study: adverse events in NSCLC cohorts; type: in vivo
[2] = Phase 1 study: adverse events in RCC cohorts; type: in vivo
advanced clear-cell RCC = experiment: Phase 1 study: antitumor activity in RCC expansion cohorts; type: in vivo, human; settings: for ORR: First line RCC (with clear cell component); for CRs, IMDC: Favorable / CRs, IMDC: Intermediate/poor / CRs / Disease control rate: First line RCC
Source text: as §1

[3] = Pembrolizumab + carboplatin/pemetrexed (n = 21)
[4] = MEDI5752 1500 mg + carboplatin/pemetrexed (n = 20)
[5] = 500 mg with Carboplatin and Pemetrexed, N = 33
[6] = 750 mg with Carboplatin and Pemetrexed, N = 72
[7] = 750 mg with Carboplatin and Taxane, N = 18
[8] = 1500 mg with Carboplatin and Pemetrexed, N = 20

## Pembrolizumab [reference compound]
Nonsquamous NSCLC; Pembrolizumab + carboplatin/pemetrexed
  Median PFS, PD-L1 <1%: 9 months
Nonsquamous NSCLC; [3]
  Disease control rate: 20 (95.2) n (%)
  Median DOR (95% CI): 9.9 (2.8-NE) months
  Median OS: 16.5 months
  ORR: 10 (47.6) n (%)
[1]; Non-squamous NSCLC, pembrolizumab + CTx, one patient
  Cause of death due to TRAE: †One patient treated with pembrolizumab + CTx died due to febrile neutropenia.

## MEDI5752: anti-PD-1/CTLA-4 bispecific antibody; light chain SEQ ID NO:1 and heavy chain SEQ ID NO:2 (PD-1), light chain SEQ ID NO:3 and heavy chain SEQ ID NO:4 (CTLA-4)
[2]; Dose Expansion 500 mg (n = 33)
  Deaths due to TRAE: 0 n
[2]; Dose Expansion 750 mg (n = 32)
  Deaths due to TRAE: 0 n
Nonsquamous NSCLC; MEDI5752 1500 mg + carboplatin/pemetrexed
  Median PFS, PD-L1 <1%: 13.4 months
Nonsquamous NSCLC; [4]
  Disease control rate: 17 (85.0) n (%)
  Median DOR (95% CI): 20.5 (4.1-NE) months
  Median OS: 25.3 months
  ORR: 10 (50.0) n (%)
[5]
  Subjects with at least one MEDI5752-related AE Leading to Discontinuation: 9.1%
  Subjects with at least one MEDI5752-related SAE: 18.2%
[6]
  Subjects with at least one MEDI5752-related AE Leading to Discontinuation: 16.7%
  Subjects with at least one MEDI5752-related SAE: 23.6%
[7]
  Subjects with at least one MEDI5752-related AE Leading to Discontinuation: 11.1%
  Subjects with at least one MEDI5752-related SAE: 16.7%
[8]
  Subjects with at least one MEDI5752-related AE Leading to Discontinuation: 75%
  Subjects with at least one MEDI5752-related SAE: 55%
Monotherapy 225 mg, N = 10
  Subjects with at least one MEDI5752-related AE Leading to Discontinuation: 0
  Subjects with at least one MEDI5752-related SAE: 20%
Monotherapy 500 mg, N = 38
  Subjects with at least one MEDI5752-related AE Leading to Discontinuation: 26.3%
  Subjects with at least one MEDI5752-related SAE: 18.4%
Monotherapy 750 mg, N = 40
  Subjects with at least one MEDI5752-related AE Leading to Discontinuation: 40%
  Subjects with at least one MEDI5752-related SAE: 45%
Monotherapy 1500 mg, N = 39
  Subjects with at least one MEDI5752-related AE Leading to Discontinuation: 56.4%
  Subjects with at least one MEDI5752-related SAE: 43.6%
Monotherapy, All, N = 178
  Subjects with at least one MEDI5752-related AE Leading to Discontinuation: 38.8%
  Subjects with at least one MEDI5752-related SAE: 34.8%
[1]; Non-squamous NSCLC randomised cohort, MEDI5752 1500 mg + CTx (n = 20)
  Deaths due to TRAE (related to MEDI5752, pembrolizumab, and/or CTx): 0 n
[1]; Non-squamous NSCLC, MEDI5752 500 mg + CTx, one patient
  Cause of death due to TRAE: ^One patient treated with MEDI5752 500 mg + CTx died due to febrile neutropenia.
[1]; Non-squamous NSCLC, MEDI5752 750 mg + CTx, four patients
  Cause of death due to TRAE: ‡One patient treated with MEDI5752 750 mg + CTx died due to pneumonitis, two due to febrile neutropenia, and one due to septic shock.
[1]; Squamous NSCLC, MEDI5752 750 mg + CTx, one patient
  Cause of death due to TRAE: ^^One patient treated with MEDI5752 750 mg + CTx died due to sepsis of respiratory origin.
Advanced clear-cell RCC; MEDI5752 500 mg (n = 33)
  ORR: 15 (45.5) n (%)
  CRs: 2 (6.1) n (%)
  Disease control rate: 23 (69.7) n (%)
Advanced clear-cell RCC; MEDI5752 750 mg (n = 32)
  ORR: 15 (46.9) n (%)
  CRs: 3 (9.4) n (%)
  Disease control rate: 28 (87.5) n (%)
Advanced clear-cell RCC; MEDI5752 500 mg
  CRs, IMDC: Favorable: 2 (16.7) n (%)
  CRs, IMDC: Intermediate/poor: 0
Advanced clear-cell RCC; MEDI5752 750 mg
  CRs, IMDC: Favorable: 1 (12.5) n (%)
  CRs, IMDC: Intermediate/poor: 2 (8.3) n (%)
